Test results: article PMC4336329 (PLoS ONE, 2015)
The campaign covered roughly 310,000 compounds. About 2,200 (0.71%) showed an effect of 50% or more. Effects have a minus sign here. This is one part of the list.

molecular target: human ether-à-go-go-related gene (hERG) potassium channel (human, UniProt Q12809); test: primary screen, population patch clamp on CHO cells stably expressing hERG
Sequence (Q12809 whole entry, looked up): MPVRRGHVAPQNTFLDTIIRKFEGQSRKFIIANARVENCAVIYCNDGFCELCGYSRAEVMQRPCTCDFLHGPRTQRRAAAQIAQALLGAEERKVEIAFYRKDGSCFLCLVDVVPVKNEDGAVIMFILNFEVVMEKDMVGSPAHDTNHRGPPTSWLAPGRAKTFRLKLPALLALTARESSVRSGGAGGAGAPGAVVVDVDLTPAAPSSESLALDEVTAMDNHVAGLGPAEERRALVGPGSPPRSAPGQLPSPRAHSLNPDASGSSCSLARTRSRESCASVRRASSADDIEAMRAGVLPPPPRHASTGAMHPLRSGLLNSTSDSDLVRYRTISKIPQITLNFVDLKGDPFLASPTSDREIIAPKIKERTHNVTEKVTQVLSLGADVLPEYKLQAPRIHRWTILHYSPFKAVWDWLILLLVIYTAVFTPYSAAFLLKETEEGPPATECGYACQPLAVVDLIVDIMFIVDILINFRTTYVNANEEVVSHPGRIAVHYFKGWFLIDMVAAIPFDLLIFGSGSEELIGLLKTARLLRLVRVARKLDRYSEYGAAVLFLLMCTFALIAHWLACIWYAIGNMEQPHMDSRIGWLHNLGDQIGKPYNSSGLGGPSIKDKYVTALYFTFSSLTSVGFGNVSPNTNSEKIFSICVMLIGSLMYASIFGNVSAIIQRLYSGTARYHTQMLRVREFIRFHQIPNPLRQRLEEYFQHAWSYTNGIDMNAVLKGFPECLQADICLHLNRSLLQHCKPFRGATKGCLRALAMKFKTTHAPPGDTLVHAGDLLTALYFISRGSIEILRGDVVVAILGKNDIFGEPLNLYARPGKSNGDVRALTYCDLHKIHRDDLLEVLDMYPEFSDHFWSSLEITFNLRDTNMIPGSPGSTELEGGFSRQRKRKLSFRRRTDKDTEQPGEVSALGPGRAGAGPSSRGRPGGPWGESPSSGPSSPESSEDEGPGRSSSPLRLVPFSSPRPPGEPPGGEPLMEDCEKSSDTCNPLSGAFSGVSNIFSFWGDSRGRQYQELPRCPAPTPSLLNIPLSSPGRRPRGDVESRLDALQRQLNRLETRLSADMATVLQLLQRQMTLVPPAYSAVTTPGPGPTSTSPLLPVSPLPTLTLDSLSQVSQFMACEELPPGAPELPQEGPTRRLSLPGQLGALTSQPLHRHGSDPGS

SMILES | hERG current change (%, negative = inhibition) at 1uM [%]
CC(=O)N1CCc2c(sc(NC(=O)c3ccc(S(=O)(=O)N(C)C)cc3)c2C#N)C1 | 10.1
O=C(O)c1ccc(N2CCS(=O)(=O)CC2)cc1 | 15.8
Cc1ccc(S(=O)(=O)N[C@@H](CCCCN)C(=O)CCl)cc1.Cl | 9.79
CC(C)c1nc(SCC(=O)Nc2ccc3c(c2)OCCO3)n[nH]1 | 2.27
CCCCOC(=O)c1ccc(Nc2ncnc3nc[nH]c23)cc1 | 12.6
COc1cccc(CN(C(=O)c2ccccc2Cl)C2CCS(=O)(=O)C2)c1 (stereo not drawn) | 12.2
Cc1ccccc1OCC(=O)OCC(=O)NCc1ccco1 | 6.61
COc1ccc(NC(=O)C2CCCN2c2nn3c(=O)cc(C)nc3s2)cc1 (stereo not drawn) | 9.92
CC1(C)CC(=O)c2c(nc3ccccc3c2N)C1 | 3.55
COc1ccc2ncn(-c3ccccc3)c2c1 | 1.48
CCN(CC)C1CCN(C(=O)c2ccc(OC3CCN(Cc4ccccn4)CC3)cc2)C1 (stereo not drawn) | 6.55
Cc1ccccc1NC(=O)C1CC(=O)N(Cc2ccccc2)C1 (stereo not drawn) | -0.411
CCC(C)NC(=O)C1CCN(C(=O)c2ccccc2)CC1 (stereo not drawn) | 12.3
O=C(Nc1ccccc1)N(O)c1ccc(Cl)cc1 | -1.26
NS(=O)(=O)c1ccc(Nc2nc(-c3cccnc3)cs2)cc1 | 2.34
COc1ccc(/C=C2\SC(=O)N=C2N)cc1OC | 16.4
CC1CC(C)(C)CC2(C1)NC(=O)N(CC(=O)NCCc1c[nH]c3ccccc13)C2=O (stereo not drawn) | 3.57
CCCC[n+]1ccn(C2=C([O-])c3ccccc3C(=O)/C2=N\S(=O)(=O)c2ccc(Br)cc2)c1 | -21.4
Cc1cc2oc(C(=O)NC3CCS(=O)(=O)C3)cc(=O)c2cc1C (stereo not drawn) | 14.9
COc1cccc(/C=N/NC(=O)c2ccc(COc3ccc(Cl)cc3Cl)o2)c1 | 5.91
CC(C)(C)S(=O)(=O)c1ccc2nc3c(n2c1)CCCC3 | 9.37
COc1cc(OC)cc(C(=O)NC(C(=O)N2CCc3ccccc3C2)C(C)C)c1 (stereo not drawn) | 15.4
CC(C[N+](C)(C)C)OC(=O)C1(c2ccccc2)CCCC1 (stereo not drawn) | 20.8

SMILES | hERG current change (%, negative = inhibition) at 1uM [%]
COCCCNC(=O)c1ccc([N+](=O)[O-])cc1 | 6.02
CCCCCCC(=O)NN1CCN(C)CC1 | 16.2
Cc1ccc2c(c1)N(C(=O)CCC(=O)NCc1cccc(F)c1)CCO2 | 9.09
Cn1c(=O)cc(SCC(=O)NCCCN2CCOCC2)c2ccc(Cl)cc21 | 14.7
CNC(=O)c1cc2c(ccc3ccccc32)oc1=N | 0.583
CCN(CC)C(=O)C1CCCN(C(=O)c2oc3ccc(C)cc3c2C)C1 (stereo not drawn) | 5.71
COc1cc(OC)c(OC)cc1CN1CCc2ccccc2C1 | 13.2
CCc1cc(=O)oc2cc(OCC(=O)NCC3CCC(C(=O)O)CC3)ccc12 (stereo not drawn) | -2.63
CCOc1ccc(N(CC(=O)NCCSCc2ccc(Cl)cc2)S(C)(=O)=O)cc1 | 11.2
COc1cc(CNCC(C)C)c(Br)cc1OCC(=O)NCc1ccccc1 | 0.825
N#Cc1c(N)c2ccccn2c1C(=O)c1ccc(Br)cc1 | 16
C#CCOC(=O)C1C2C=CC(C2)C1C(=O)O (stereo not drawn) | 3.58
COc1cccc(C(=O)NC2CCN(C(=O)N3c4ccccc4Sc4ccccc43)CC2)c1 | -3.22
O=C(CSc1nnc(-c2cccs2)n1C1CC1)NCC1CCCO1 (stereo not drawn) | 7.08
CC(C)C[C@@H](CO)N1CCNCCC1=O | 15.7
Cc1oc2c(Cl)c(Cl)c(O)c(CN(C)C)c2c1C(=O)c1ccc(Cl)cc1 | 17.8
COc1ccc(NC(=O)C(C)N2C(=O)c3ccccc3C2=O)cc1S(=O)(=O)N1CCOCC1 (stereo not drawn) | 15.8
O=C(Nc1nnc(CCN2CCCCC2)s1)c1ccc(Br)cc1 | -8.18
CS(=O)(=O)c1ccc(Cl)c(NC(=O)c2cccc(N3C(=O)CCC3=O)c2)c1 | 9.67
O=c1cnn(Cc2c(Cl)cccc2Cl)c2ccccc12 | -0.134
CC(=O)c1ccc(OCc2cc(C(=O)N3CCC(Oc4ccccc4C)CC3)no2)cc1 | 9.86
CCOc1ccc2ccccc2c1C(=O)N[C@@H]1C(=O)N2[C@@H]1SC(C)(C)[C@@H]2C(=O)[O-].O.[Na+] | 16
